# Laboratory results: PubChem BioAssay AID1745853 (National Center for Advancing Translational Sciences (NCATS), 2022)
# This is one part of the list. Shown are side measurements of this screen, not its main read-out; they come without a call.
# What was measured:
# Assay in all cases: Primary Screen for Target Class Profiling of Small Molecule Inhibitors of Methyltransferases
# [1] = biological target: Glycine N-methyltransferase (Homo sapiens) (UniProt Q14749); settings: purified enzyme, MTase-Glo SAH luminescence; measured here: GNMT inhibition; at 40 µM; stronger effect = lower value
# Summary of the method: (§1)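 Each enzyme was assayed with SAM and its substrate. SAH formation detected by MTase-Glo luminescence; single-point 40 uM screen[…].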
# [2] = biological target: Guanidinoacetate N-methyltransferase (Homo sapiens) (UniProt Q14353); settings: purified enzyme, MTase-Glo SAH luminescence; measured here: GAMT inhibition; at 40 µM; stronger effect = lower value
# Summary of the method: as §1
# [3] = biological target: Histamine N-methyltransferase (Homo sapiens) (UniProt P50135); settings: purified enzyme, MTase-Glo SAH luminescence; measured here: HNMT inhibition; at 40 µM; stronger effect = lower value
# Summary of the method: as §1
# [4] = biological target: Nicotinamide N-methyltransferase (Homo sapiens) (UniProt P40261); settings: purified enzyme, MTase-Glo SAH luminescence; measured here: NNMT inhibition; at 40 µM; stronger effect = lower value
# Summary of the method: as §1
# [5] = biological target: Phenylethanolamine N-methyltransferase (Homo sapiens) (UniProt P11086); settings: purified enzyme, MTase-Glo SAH luminescence; measured here: PNMT inhibition; at 40 µM; stronger effect = lower value
# Summary of the method: as §1
# % is set by controls: 0 for no effect and ±100 for the full control effect.
SMILES,"activity change, negative = inhibition [1]","activity change, negative = inhibition [2]","activity change, negative = inhibition [3]","activity change, negative = inhibition [4]","activity change, negative = inhibition [5]"
COc1ccc(C2(C(=O)N3CCCCCC3c3nc(-c4cccnc4)no3)CC2)cc1 (stereo not drawn),-0.915%,2.46%,3.2%,-2.27%,2.23%
CCOc1ccccc1CNC(=O)c1cc2n(n1)CC(C)(C(=O)NCCC(C)C)N(C)C2=O (stereo not drawn),3.46%,0.084%,4.43%,5.52%,2.97%
O=C(O)c1ccc(CN2CCC[C@H]2c2nc(-c3ccc(OC4CCCCC4)nc3)no2)cc1,-5.96%,-2.39%,-0.806%,-6.16%,-0.387%
CCCN1C(=O)c2c(C(=O)NCCc3ccc(Cl)cc3)ncn2CC1(C)C(=O)NCCC(C)C (stereo not drawn),1.36%,0.38%,1.48%,-1.06%,6.29%
COc1ccc(-c2cc3n(n2)CC(C)(C(=O)NC2CCCCC2)N(Cc2ccccn2)C3=O)cc1 (stereo not drawn),-0.644%,4.91%,-1.43%,2.78%,-0.489%
O=C1Nc2ccccc2CC12CCN2Cc1ccc(OC(F)(F)F)cc1 (stereo not drawn),-7.81%,-7.23%,-6.82%,-16.9%,-15.4%
Cc1ccc2c(n1)N(C)[C@H](CO)CCN(Cc1cccc(Cl)c1)C2,-4.11%,-0.795%,-5.74%,-6.71%,2.45%
Cc1noc(CN2C[C@H](NC(=O)CNS(C)(=O)=O)[C@@H](C3CC3)C2)n1,-2.09%,-4.45%,-0.438%,-3.91%,1.13%
COc1ccc(CN2C(=O)c3cc(-c4ccco4)nn3CC2(C)C(=O)NC2CCCCCC2)cc1 (stereo not drawn),3.51%,1.83%,9.55%,4.35%,2.23%
C=C1CCC2[C@@](C)(C=O)CCC[C@]2(C)[C@H]1CC/C(C)=C/CO (stereo partly drawn),-6.18%,-4.17%,3.27%,-23.5%,-5.58%
Cc1ccc2c(c1)c(-n1cccc1)c1n2CC(C)(C(=O)NC2CCCCC2)N(Cc2ccccn2)C1=O (stereo not drawn),-15.1%,-1.43%,-12.2%,-32.7%,-8.5%
CCCn1c(=O)c2ccc(C(=O)NC3CCCC3)cc2n2c(=O)n(CC(=O)NC(C)(C)C)nc12,3%,5.2%,5.37%,-2.67%,0.146%
CC(C)(O)C1CC(=O)C2(C)C(CCC3(C)C(c4ccoc4)OC(=O)C4OC432)C12CCC(=O)OC2 (stereo not drawn),4.71%,5.31%,9.05%,-8.25%,3.54%
CC(=O)N[C@@H](CCCCN)C(=O)N(C)[C@@H](CC(C)C)C(=O)N[C@H](C(=O)N(C)[C@@H](Cc1ccccc1)C(=O)N[C@H](Cc1ccccc1)C(N)=O)C(C)C,-1.26%,0.756%,14%,-11.5%,0.663%
COc1ccccc1CN1C(=O)c2cc3c(OC)ccc(OC)c3n2CC1(C)C(=O)NC1CCCC1 (stereo not drawn),6.3%,0%,10.6%,4.24%,1.57%
COc1ccc(Cl)cc1NC(=O)N1CCn2cccc2C1C (stereo not drawn),-11%,0.191%,-12.7%,-24%,-14%
Cn1cc(CN2C[C@H](C(=O)Nc3nccs3)C[C@@H]2c2cccc(C(F)(F)F)c2)cn1,-6.58%,0.778%,-0.65%,-14.2%,-5.78%
OCCN1CCN(C(c2ccc(Cl)cc2Cl)c2sc3nc(-c4ccco4)nn3c2O)CC1 (stereo not drawn),,5.09%,,-8.19%,5.92%
COc1ccc(-c2n[nH]n3c2nc(=O)c2ccc(C(=O)NCc4ccc(C(C)C)cc4)cc23)cc1,4.04%,0.798%,4.36%,-2.67%,-0.372%
Cc1ccc(CCNC(=O)CCn2ccc3cc(S(=O)(=O)N4CCCC4)ccc32)cc1,-1.68%,0%,2.87%,-5.23%,-1.89%

SMILES,"activity change, negative = inhibition [1]","activity change, negative = inhibition [2]","activity change, negative = inhibition [3]","activity change, negative = inhibition [4]","activity change, negative = inhibition [5]"
Cn1c(=O)c2ccc(C(=O)NC3CCCC3)cc2n2c(SCC(=O)NC3CCCCC3)nnc12,-3%,-1.23%,4.57%,3%,5.51%
Cc1cccc(Nc2cc(Cl)nc(SCC(=O)O)n2)c1C,-6.94%,-3.62%,4.28%,-11.8%,0.403%
CCOc1cc2ncc(C#N)c(Nc3ccc(OCc4ccccn4)c(Cl)c3)c2cc1NC(=O)/C=C/CN(C)C,-8.19%,11.1%,2.37%,-9.5%,1.93%
Cc1cc(NC(=O)c2cccc(NC(=O)/C=C/CN(C)C)c2)ccc1Nc1nccc(-c2cccnc2)n1,-93.2%,3.63%,-83%,-11.9%,-2.74%
CC1(C(=O)NC2CCCCCCC2)Cn2c(cc3occc32)C(=O)N1Cc1ccc(Cl)cc1 (stereo not drawn),-1.5%,0%,1.18%,-3.22%,-0.273%
CC(C)CCn1c(=O)c2ccccc2n2c(=O)n(Cc3cccc(Cl)c3)nc12,0.852%,0.421%,5.91%,-4.18%,1.03%
CC(C)Cn1c(=O)c2ccccc2n2c(CCC(=O)NCc3ccc(Cl)cc3)nnc12,-10.2%,-3.02%,-4.78%,-12.1%,-9.62%
CCCCN1C(=O)c2cc(C(=O)NCc3ccc(C)cc3)nn2CC1(C)C(=O)NC1CCCC1 (stereo not drawn),6.81%,0%,1.06%,4.66%,7.11%
Oc1cc(CNC(=S)/C=C/c2cc(O)c(O)c(Br)c2)cc(O)c1O,,-0.676%,,-14.9%,0.095%
CC[C@H](C)[C@H]1O[C@]2(CC[C@@H]1C)C[C@@H]1C[C@@H](C/C=C(\C)[C@@H](O[C@H]3C[C@H](OC)[C@@H](O[C@H]4C[C@H](OC)[C@@H](O)[C@H](C)O4)[C@H](C)O3)[C@@H](C)/C=C/C=C3\CO[C@@H]4[C@H](O)C(C)=C[C@@H](C(=O)O1)[C@]34O)O2,-1.94%,,6.72%,,
O=C(CCn1ccc2cc(S(=O)(=O)N3CCCCC3)ccc21)NC1CC1,4.86%,5.94%,7.35%,4.45%,4.51%
OCCC1CN(c2nccc(-c3ccccn3)n2)CCN1Cc1ccoc1 (stereo not drawn),-10.8%,-11.2%,-4.29%,-11.9%,-9.18%
CC(C)n1cc(CN2C[C@@H]3C(=O)N(Cc4ccc5c(c4)OCO5)C(=O)[C@@H]3C2)c2ccccc21,-2.83%,-7.48%,-2.45%,-8.45%,-8.04%
O=C(NC1CCCC1)c1ccc(OC2CCN(C(=O)C3CCCO3)CC2)c(Cl)c1 (stereo not drawn),-6.49%,-3.91%,-2.32%,-12.2%,-2.03%
CCN(CC)C(=O)[C@@H]1C[C@@H](NC(=O)c2ccn(CC)c(=O)c2)CN1C(C)=O,-1.84%,2.16%,3.18%,-1.51%,-2.53%
CC1(C)CCCC2(C)C=C(C(=O)O)C(O)CC12 (stereo not drawn),5.64%,5.67%,3.18%,-10%,4.73%
COc1cc(OC)c(/C=C2/C(=O)Nc3ccccc32)c(OC)c1,-30.6%,-7.05%,-13.4%,-15.7%,-11.7%
OCc1ccc(O[C@@H]2O[C@H](CO)[C@@H](O)[C@H](O)[C@H]2O)cc1,-1.51%,-6.99%,3.3%,-15.5%,-8.31%
Fc1cccc(CN2CCO[C@@H](COc3ccccn3)[C@@H]2c2ccccc2)c1,-5.89%,-6.8%,-0.165%,-12.2%,-7.48%
CC1CCC(NC(=O)C2(C)Cn3c(ccc3-c3ccco3)C(=O)N2Cc2ccc(Cl)cc2)CC1 (stereo not drawn),4.65%,0%,8.95%,7.06%,-4.52%

SMILES,"activity change, negative = inhibition [1]","activity change, negative = inhibition [2]","activity change, negative = inhibition [3]","activity change, negative = inhibition [4]","activity change, negative = inhibition [5]"
Cc1ccnn1CCC(=O)N[C@@H]1COCC[C@H]1Oc1ccc(C(N)=O)cc1,-1.23%,0.516%,1.78%,-0.206%,4.63%
CC(C)OCCCNC(=O)CCc1nnc2n(CCc3ccccc3)c(=O)c3ccccc3n12,-8.56%,0%,-0.902%,6.42%,-1.18%
O=C(NC(NC(=S)Nc1ccc(F)c([N+](=O)[O-])c1)C(Cl)(Cl)Cl)C(c1ccccc1)c1ccccc1 (stereo not drawn),-5.85%,-13.6%,7.65%,-19%,-2.98%
Cc1ccc(NS(=O)(=O)c2ccc3c(c2)n(C)c(=O)n3C)cc1C,-5.16%,0.349%,-3.07%,-7.23%,-2.65%
CN(C)c1cccc(Oc2cnc(Nc3cccc(O)c3)nc2)c1,0.434%,6.18%,10.7%,-14.8%,4.92%
CCC(CCO[C@@H]1O[C@H](CO[C@H]2OC[C@](O)(CO)[C@H]2O)[C@@H](O)[C@H](O)[C@H]1O)C(C)(C)O (stereo partly drawn),6.89%,8.88%,3.33%,-4.87%,6.28%
CCOC(=O)N1CCN(C(C(=O)O)c2ccc(OC)nc2OC)CC1 (stereo not drawn),-2.09%,-4.35%,-0.754%,-5.54%,-9.86%
COc1cccc(NS(=O)(=O)c2cc3[nH]c(=O)[nH]c3cc2C)c1,6.65%,0.229%,1.21%,-4.33%,-1.37%
CC1CCC(NC(=O)C2(C)Cn3c(cc4sccc43)C(=O)N2CCc2ccc(Cl)cc2)CC1 (stereo not drawn),6.4%,-24.6%,8.59%,5.23%,0.369%
O=[S+]1([O-])NC2(CCN(Cc3ccc(F)cc3)CC2)CNc2ccccc21,-2.2%,-1.69%,-19%,-5.18%,-7.37%
CC1CC=C2C1CC1(O)C(=O)CC2(C)C1(C)CO (stereo not drawn),-0.109%,-2.76%,-1.34%,-15.9%,3.87%
COCCN1C(=O)c2nc3ccccc3n2CC1(C)C(=O)NC1CCCCCC1 (stereo not drawn),0.966%,3.18%,0.232%,-0.56%,0.283%
COc1ccc(OC)c2c1cc1n2CC(C)(C(=O)NC2CCCC2)N(CCc2ccccc2)C1=O (stereo not drawn),-6.59%,1.07%,5%,6.88%,-0.073%
CCOc1ccc(NS(=O)(=O)c2cc3c(cc2C)n(C)c(=O)n3C)cc1,-4.31%,3.32%,-9.81%,-13%,-8.82%
C=CCn1c(=O)c2ccc(C(=O)NCC(C)C)cc2n2c(=O)n(CC(=O)Nc3ccc(C)cc3)nc12,1.48%,2.69%,-0.729%,-3.89%,-1.74%
CC1CCN(S(=O)(=O)c2ccc3c(ccn3CCC(=O)NCCc3ccccc3Cl)c2)CC1,-0.434%,5%,2.32%,-4.32%,-1.22%
CC(C)(C)c1cc2n(n1)CC(C)(C(=O)NCc1ccccc1)N(c1ccc(F)cc1)C2=O (stereo not drawn),5.49%,0%,4.68%,4.03%,0.654%
CS(=O)(=O)NCCc1ccc(CC2CCN(C(=O)c3cnccn3)CC2)cc1,-0.753%,-1.31%,0.605%,0.284%,3.1%
